Each structure is given as a SMILES string. Among all 50,000 compounds or so, about 800 (1.6%) showed an effect of 50% or more. Some of the results follow.

In this experiment the target is Bcl-2-like protein 10 (Homo sapiens) (UniProt Q9HD36). The experiment is described as follows: Phenotype converters, Bcl-B/TR3 peptide binding displacement, primary biochemical FP (AID 1240).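 Note: 0% = Bcl-B with tracer peptide and DMSO and 100% = tracer peptide lacking Bcl-B.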 The note with it: GST-Bcl-B / FITC-TR3 peptide fluorescence polarization; stronger effect = higher value; compound at 3.75 mg/L. For orientation: Polarisation of emitted light reports the rotation of a fluorescent probe.
Sequence of UniProt Q9HD36 (Q9HD36 whole entry, looked up): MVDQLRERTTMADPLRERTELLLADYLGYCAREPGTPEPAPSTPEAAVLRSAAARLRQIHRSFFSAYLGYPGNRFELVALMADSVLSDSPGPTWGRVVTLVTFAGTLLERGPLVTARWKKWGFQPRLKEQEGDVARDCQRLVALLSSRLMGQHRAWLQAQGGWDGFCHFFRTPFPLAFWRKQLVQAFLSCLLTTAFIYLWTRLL
Take `CCN(CC)c1ccc(/C=C2\SC(N)=NC2=O)c(OCc2ccc(Cl)cc2)c1`: the displacement was -13.7%.
Take `O=C(COc1ccccc1Cl)Nc1ccc2nn(-c3ccccc3)nc2c1`: the displacement came to 78.4%.
The figure for `CC1(C)CC(=O)C2=C(C1)Nc1ccccc1NC2c1cccc2ccccc12` (stereo unspecified) is 23.3%.
The figure for `C=C(C)c1cccc(C(C)(C)NC(=O)NCCc2ccccc2)c1` is 14%; for `O=C(c1ccc(Cl)cc1[N+](=O)[O-])N1CCN(Cc2ccccc2)CC1` it is 1.1%.
The figure for `COc1cccc(C(=O)N2CCN(Cc3cccc(Cl)c3)CC2)c1` is -10.4%; for `N#C/C(=C/c1cccc(Cl)c1)C(=O)Nc1cccc(Br)c1` it is -10.3%.
Consider `CCN(CC)CCCOc1ccccc1[N+](=O)[O-]`, for which the displacement amounted to 5.8%.
With `N#C/C(=C\c1cccc(F)c1)c1nc(-c2ccc([N+](=O)[O-])cc2)cs1`, the displacement worked out at 8.5%.
Under `CC(=O)Nc1ccccc1C(=O)N1CCC(Cc2ccccc2)CC1` stands 15.8%; under `Cc1cccc(NC2=C(Cl)C(=O)N(c3cccc(Cl)c3Cl)C2=O)c1`, 14.4%.
For `O=c1[nH]c2ccc(Cl)cc2c(-c2ccccc2)c1Sc1nc2ccccc2[nH]1`, the displacement was -11.5%.
The figure for `O=C1NC(=S)S/C1=C\c1ccc(O)c(O)c1` is -1.6%; for `Clc1cccc(OCCOCCN2CCOCC2)c1Cl` it is -8%; for `Cc1cc(C=C2C(=O)c3ccccc3C2=O)c(-c2ccccc2)n1-c1ccccc1` it is 68%.
On to `COc1ccc(N2C(=O)C(Cl)=C(Nc3cc(OC)ccc3OC)C2=O)cc1`, for which the displacement was -2.5%.
As to `CCOC(=O)C(O)(c1ccc(N(CC)CC)cc1)C(F)(F)F` (stereo unspecified), the displacement came to 3.9%.
Under `Cc1cccc(N2C(=O)/C(=C/c3ccc(C(=O)O)cc3)SC2=S)c1C` stands 0.5%.
With `CC1(C)CC(=O)C2=C(C1)OC1=C(C(=O)CC(C)(C)C1)C2c1cc2c(cc1Cl)OCO2`, the displacement came to 7.2%.
The figure for `CCc1ccc(NC(=O)C2CCCCC2)cc1` is -5.9%; for `O=C(O)CCCCCN1C(=O)C(O)=C(C(=O)/C=C/c2ccccc2)C1c1ccccc1Cl` (stereo unspecified) it is -7.2%.
Regarding `CC(NC(=O)C(=O)NCC1CCNCC1)c1ccccc1` (stereo unspecified), the displacement came to 8.8%.
The figure for `CC(=O)ON=C1c2cc(S(=O)(=O)N(C)C)ccc2-c2ccc(S(=O)(=O)N(C)C)cc21` is 12.1%.
The figure for `CCOC(=O)c1c(NC(=O)c2ccccc2F)sc(C(=O)Nc2cc(C(F)(F)F)ccc2Cl)c1C` is 7.7%.
For `O=C(CN1C(=O)/C(=C\c2ccccc2Cl)SC1=S)Nc1cc(Cl)ccc1O`, the displacement was -6.4%.
Take `CN(C)CCCNC(=O)c1ccc(N(C)S(=O)(=O)c2ccccc2)cc1`: the displacement is -13.4%.
Consider `COc1ccc(C=NCC2COc3ccccc3O2)cc1OC` (stereo unspecified), for which the displacement came to 4.8%.
Under `Cc1noc2c1/C(=N\O)CC(c1ccccc1)C2` (stereo unspecified) stands 2.6%; under `Cc1ccc(/C=N/c2nc3ccc(Br)cc3n2C)c(O)c1`, -3.5%; under `O=C(CSc1ccccn1)N/N=C\c1c[nH]c2ccccc12`, 3.9%.
`COc1cc(-c2nc(-c3ccccc3)c(-c3cc([N+](=O)[O-])ccc3C)[nH]2)cc(OC)c1OC`: the displacement is 3.5%.
Under `COc1cccc(/C=N/NC(=O)CSc2nnc(-c3ccccc3)n2-c2ccccc2)c1OC` stands 1%; under `COc1ccc(/C=C\C(=O)c2c(-c3ccccc3)c3cc(C)ccc3[nH]c2=O)c(OC)c1`, -16%.
The figure for `COc1ccc(CC(C)(C)NC(=O)c2ccccc2)cc1` is 10.1%.
Turning to `CCOc1cc(/C=C2/SC(=S)N(C)C2=O)ccc1OS(=O)(=O)c1ccc(C)cc1`, the displacement is -1.9%.
Under `Cc1ccc(N(CC(=O)NCCSc2ccccn2)S(C)(=O)=O)cc1` stands 15%; under `CC1=CC(=O)C=C/C1=N\S(=O)(=O)c1ccc(C)cc1`, 17.2%; under `O=c1[nH]c(=O)n(-c2ccccc2F)c(O)c1C=Nc1ccc(Cl)cc1`, -1.4%.
In the case of `CCc1ccc(OCCCCCN(CC)CC)cc1`, the displacement came out at 5.7%.
The figure for `CCOC(=O)c1c(NC(=O)c2cc(OC)c(OC)c(OC)c2)sc(C(N)=O)c1C` is -14.6%.
The figure for `COc1ccc(OCC(=O)Nc2c(C)n(C)n(-c3ccccc3)c2=O)cc1` is 7.3%; for `C=CCOc1c(Cl)cc(/C=C2\C(=O)NC(=O)N(c3cc(C)cc(C)c3)C2=O)cc1OC` it is -13.9%.
As to `O=C1CC(N2CCSCC2)C(=O)N1c1ccc(S(=O)(=O)N2CCOCC2)cc1` (stereo unspecified), the displacement was determined as 37.9%.
Turning to `C=CCn1c(CCCN2C(=O)c3cccc4cccc(c34)C2=O)nnc1SCC(=O)OCC`, the displacement stood at 0.6%.
With `COc1ccccc1NC(=O)CC1S/C(=N\N=C(/C)c2cccc(NC(C)=O)c2)NC1=O` (stereo unspecified), the displacement was 3.3%.
`O=c1[nH]c2ccc(Br)cc2c(-c2ccccc2)c1C1=NNC(c2ccc([N+](=O)[O-])cc2)C1` (stereo unspecified): the displacement was -6.6%.
In the case of `O=C(c1ccccc1Br)N1N=C(c2ccccc2)CC1(O)C(F)(F)F` (stereo unspecified), the displacement was found to be 7.1%.
`O=C(Nc1ccc(Br)cc1C(=O)O)c1cccs1`: the displacement amounted to 4.2%.
The figure for `O=C1c2ccccc2C(=O)C12OC(c1ccc(Cl)cc1)C1(C(=O)c3ccccc3C1=O)C2c1ccc(F)cc1` (stereo unspecified) is 1.7%.
The figure for `C=CCC1(C#N)C(SC)=NC2=C(C(=O)CC(C)(C)C2)C1c1ccccc1` (stereo unspecified) is -3.5%; for `COc1ccc(CC(=O)NCc2ccc(F)cc2)cc1OC` it is 3.3%.
The figure for `O=C(Nc1ccc(Br)cc1)C1CCCN1S(=O)(=O)c1ccc(Cl)cc1` (stereo unspecified) is 19%.
Consider `N/C(=N\OC(=O)COc1ccc2ccccc2c1)c1ccncc1`, for which the displacement is -2.5%.
The figure for `O=C1c2ccccc2C(=O)N1CSc1nnc2c(n1)[nH]c1ccccc12` is -8.9%; for `CC1=NN(C(=O)c2cocc2C)C(O)(C(F)(F)F)C1` (stereo unspecified) it is 10.3%.
For `C=CCOc1ccc(/C=C2\C(=O)NC(=O)N(c3ccc(Br)cc3)C2=O)cc1OC`, the displacement was -13.2%.
Under `CCOC(=O)/C(C#N)=C\c1cccn1C` stands -6.7%; under `Cc1ccc(S(=O)(=O)N(CC(O)CN(C)C)c2cccc3ccccc23)cc1` (stereo unspecified), 1.1%.
Turning to `CCN(c1ccccc1)S(=O)(=O)c1cc(Cl)ccc1Cl`, the displacement is -10.9%.
The figure for `CN1C(=O)C(=Cc2ccc(-c3cccc(Cl)c3Cl)o2)C(=O)N(C)C1=O` is 4.6%; for `Cc1ccccc1/C(=C1\OC(=O)c2ccccc21)[N+](=O)[O-]` it is -6%.
Under `COc1ccc(/C=C2\SC(=S)N(C(C)C)C2=O)cc1` stands -3.9%; under `CCOc1cc([N+](=O)[O-])ccc1NC(C)=O`, 2.2%; under `CCOC(=O)C(=O)N1CCN(c2ccccc2OC)CC1`, -1.6%.
Turning to `CCN=C(Nc1cc(Cl)cc(Cl)c1)SC1CC(=O)N(c2cccc(OC)c2)C1=O` (stereo unspecified), the displacement turned out to be 14.3%.
The figure for `Cc1c(C(=O)Nc2ccc3oc(-c4ccccc4Br)nc3c2)cccc1[N+](=O)[O-]` is -9.9%; for `CCCOC(=O)c1ccc(NC(=O)c2ccc(C)c([N+](=O)[O-])c2)cc1` it is 7.5%; for `Cc1cc(NC(=O)c2c(-c3c(Cl)cccc3Cl)noc2C)ccc1Br` it is -10.1%.
Under `c1ccc2cc(OCCCN3CCCC3)ccc2c1` stands 6.9%; under `O=C1NC(=S)S/C1=C\c1ccc(-c2ccc(Cl)c(C(=O)O)c2)o1`, -91.6%.
Consider `CC1CN(C(=O)Cc2ccccc2[N+](=O)[O-])CC(C)O1` (stereo unspecified), for which the displacement is -2.4%.
The figure for `CCOc1ccccc1/C=C1/C(=O)NN(c2ccc(I)cc2)C1=O` is 7.5%.
The figure for `O=C1C(=O)N(c2cccc(C(F)(F)F)c2)C(c2ccc([N+](=O)[O-])cc2)/C1=C(/O)c1ccccc1` (stereo unspecified) is -2.3%.
Under `CCOC(=O)c1c(NC(=O)c2cc(Br)ccc2OC)sc2c1CCCC2` stands 4.5%; under `Cc1ccc(/C(=N\S(=O)(=O)c2cccc([N+](=O)[O-])c2)Nc2ccccc2)cc1`, 13.2%.
With `O=C(Nc1ccc(Cl)c(Cl)c1)c1ccc(Cl)cc1Cl`, the displacement was found to be 1.4%.
The figure for `NS(=O)(=O)c1cccc(NC(=O)COc2ccc([N+](=O)[O-])cc2)c1` is -4.7%; for `CC(C)CNC(=O)CN(c1ccc(Cl)cc1)S(C)(=O)=O` it is 15%.
The figure for `N#Cc1c(N)[nH]c(=S)c(C#N)c1-c1cccc([N+](=O)[O-])c1` is -7.9%; for `CCC(C)OC(=O)C1=C(C)NC(=O)NC1c1cccc(Br)c1` (stereo unspecified) it is -1.4%; for `Nc1cc(-c2cccc(Br)c2)nn1Cc1ccccc1` it is -15.6%.
Regarding `COC(=O)c1ccc(NS(=O)(=O)c2ccc(C)cc2)cc1`, the displacement is -7.9%.
The figure for `O=C(NC(c1ccccc1)c1ccccc1)c1ccccc1C(F)(F)F` is -6.4%; for `CCOC(=O)C1=C(C)N=c2s/c(=C\c3ccc(OC)cc3)c(=O)n2C1/C=C/c1ccccc1` (stereo unspecified) it is 12%; for `COc1ccc(OC)c(N2C(=O)NC(=O)/C(=C/C=C/c3ccccc3)C2=O)c1` it is 37.4%.
As for `CCc1ccc(NCCC(=O)c2ccc(Br)cc2)cc1`, the displacement was determined as 10.6%.
The figure for `CCOc1ccc(N2C(=O)NC(=O)/C(=C\c3ccccc3OC)C2=O)cc1` is -0.4%; for `CCOC(=O)c1c(NC(=O)CN2CCOCC2)sc2c1CCC/C2=N\O` it is -6.6%; for `COc1ccc(/C=C/C(=O)c2ccc([N+](=O)[O-])cc2)s1` it is -4.2%.
Under `Cc1cccc(C)c1OCC(=O)NN=Cc1ccc(O)cc1` stands -6.4%.
The figure for `CCOc1ccc(/C=C/C(=O)c2ccc(Br)cc2)cc1` is 13.6%; for `CCN1C(=O)/C(=C/C2CC=CCC2)SC1=S` (stereo unspecified) it is 11.2%; for `COc1ccccc1/C=N\Nc1nc(-c2ccccc2)cc(-c2ccccc2)n1` it is 4.5%.
`O=C(Nc1ccc(Cl)c(Cl)c1)Nc1nnc(/C=C/c2ccccc2)s1`: the displacement stood at 30.5%.
In the case of `O=C1NC(=O)N(c2ccc(Cl)cc2)C(=O)/C1=C\C=C\c1ccco1`, the displacement is -27%.
As to `Nc1ccc2c(c1)C(=O)c1ccccc1C2=O`, the displacement was 6.9%.
Take `O=C(CN1C(=O)/C(=C/c2ccccc2F)SC1=S)Nc1cccc(O)c1`: the displacement was determined as 18.2%.
Take `O=C(NCCSCc1ccccc1)c1ccccc1Cl`: the displacement was -1.3%.
The figure for `O=C1NN(c2ccc(Cl)c(Cl)c2)C(=O)/C1=C/c1cc([N+](=O)[O-])ccc1O` is -1.6%; for `Cc1ccc[n+](CC(=O)c2ccc(N3C(=O)c4ccccc4C3=O)cc2)c1` it is -0.2%; for `Cc1ccc(CN2CCN(/N=C/c3ccc(C)s3)CC2)cc1` it is 14.9%.
With `Cc1ccc(CNC(=O)C(=O)NCc2ccncc2)cc1`, the displacement was 7.8%.
For `Cc1ccsc1C1CC(=O)NC(SCc2ccccc2)=C1C#N` (stereo unspecified), the displacement is -5.9%.
Under `CC(C)(C)C(=O)COc1cc2oc(=O)cc(-c3ccccc3)c2cc1Cl` stands -1.9%; under `CS(=O)(=O)N(Cc1ccc(Cl)cc1)c1ccc(C(=O)O)cc1`, 10.9%.
With `COc1ccc(N2C(=O)c3ccccc3NC2c2ccc(OC)c(CN3C(=O)c4ccccc4C3=O)c2)cc1` (stereo unspecified), the displacement is -4.2%.

Source of the values: PubChem BioAssay AID1240 (Sanford-Burnham Center for Chemical Genomics, 2008).
